{"source": "paper PMC4336329", "about": "(PLoS ONE, 2015)", "note": "Screen size: about 310,000 compounds; about 14,000 (4.5%) showed an effect of 50% or more. Effects have a minus sign here. This is one part of the list.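 Also: peak tail current of the secondary pulse compared with the same well before compound.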", "data": [{"biological_target": "human ether-à-go-go-related gene (hERG) potassium channel (human, UniProt Q12809)", "sequence (Q12809 whole entry, looked up)": "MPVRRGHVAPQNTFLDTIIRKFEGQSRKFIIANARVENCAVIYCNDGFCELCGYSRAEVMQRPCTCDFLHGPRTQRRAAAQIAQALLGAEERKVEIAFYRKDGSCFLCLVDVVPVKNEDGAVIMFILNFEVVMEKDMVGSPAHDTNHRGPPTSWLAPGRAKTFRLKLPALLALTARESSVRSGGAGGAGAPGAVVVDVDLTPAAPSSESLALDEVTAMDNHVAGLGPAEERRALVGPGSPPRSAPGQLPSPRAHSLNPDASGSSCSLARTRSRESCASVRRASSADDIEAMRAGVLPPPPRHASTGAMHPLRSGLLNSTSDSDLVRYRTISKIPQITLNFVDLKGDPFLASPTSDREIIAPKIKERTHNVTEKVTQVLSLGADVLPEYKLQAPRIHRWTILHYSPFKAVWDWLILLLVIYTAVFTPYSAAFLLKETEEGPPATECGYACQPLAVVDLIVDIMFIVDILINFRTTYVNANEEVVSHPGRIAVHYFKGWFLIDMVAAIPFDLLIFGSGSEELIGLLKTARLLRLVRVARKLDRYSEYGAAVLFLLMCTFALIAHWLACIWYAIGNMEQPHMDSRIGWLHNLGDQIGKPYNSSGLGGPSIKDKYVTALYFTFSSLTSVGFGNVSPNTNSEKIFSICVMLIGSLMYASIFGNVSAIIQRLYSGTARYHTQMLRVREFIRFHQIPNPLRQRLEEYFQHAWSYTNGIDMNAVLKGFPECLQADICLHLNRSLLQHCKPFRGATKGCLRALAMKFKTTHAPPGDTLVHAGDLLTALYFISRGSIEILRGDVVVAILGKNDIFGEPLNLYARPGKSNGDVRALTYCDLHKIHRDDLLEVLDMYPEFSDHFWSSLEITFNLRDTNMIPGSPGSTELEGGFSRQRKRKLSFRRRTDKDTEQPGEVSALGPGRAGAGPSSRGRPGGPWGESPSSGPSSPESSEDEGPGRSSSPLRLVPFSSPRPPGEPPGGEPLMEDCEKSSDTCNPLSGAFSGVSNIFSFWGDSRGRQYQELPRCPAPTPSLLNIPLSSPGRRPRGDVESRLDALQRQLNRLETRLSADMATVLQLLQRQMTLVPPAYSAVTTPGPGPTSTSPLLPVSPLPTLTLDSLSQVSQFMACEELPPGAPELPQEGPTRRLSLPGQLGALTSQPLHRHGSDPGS", "assay": "primary screen, population patch clamp on CHO cells stably expressing hERG", "units": {"hERG current change (%, negative = inhibition) at 10uM": "%"}, "values": [{"smiles": "Cc1cc(NC(=O)/C=C\\C(=O)O)c([N+](=O)[O-])cc1C", "hERG current change (%, negative = inhibition) at 10uM": 11.6}, {"smiles": "COc1cc(NC(=O)c2ccnnc2)cc(C(=O)Nc2cccc(C(F)(F)F)c2)c1", "hERG current change (%, negative = inhibition) at 10uM": -52.8}, {"smiles": "Cn1cc(Cl)c(C(=O)Nc2cnn(Cc3ccc(F)cc3)c2)n1", "hERG current change (%, negative = inhibition) at 10uM": -24.2}, {"smiles": "CC(C)=C1SC(N2CCN(c3cccc(C(F)(F)F)c3)CC2)=NC1=O", "hERG current change (%, negative = inhibition) at 10uM": -2.7}, {"smiles": "Cc1ccc2c(c1)CCCN2N=O", "hERG current change (%, negative = inhibition) at 10uM": 0.938}, {"smiles": "COC(=O)COc1nsnc1N1CCOCC1", "hERG current change (%, negative = inhibition) at 10uM": 1.04}, {"smiles": "CCOC(=O)C(C)CC(C)C(=O)N1CCOCCN(C(=O)C(C)CC(C)C(=O)OCC)CCOCC1", "note": "(stereo not shown)", "hERG current change (%, negative = inhibition) at 10uM": -9.48}, {"smiles": "CCn1ccnc1CNC(=O)C1CCC(=O)N(Cc2cccc(C(F)(F)F)c2)C1", "note": "(stereo not shown)", "hERG current change (%, negative = inhibition) at 10uM": -7.28}, {"smiles": "O=c1oc(-c2cccs2)nc2scc(-c3cccs3)c12", "hERG current change (%, negative = inhibition) at 10uM": 14.3}, {"smiles": "Cc1ccc(NC(=O)NC2CCCCCCC2)c(C)c1", "hERG current change (%, negative = inhibition) at 10uM": 14.8}, {"smiles": "CCCC(=O)Nc1ccccc1-c1nnc(SCC)[nH]c1=O", "hERG current change (%, negative = inhibition) at 10uM": 0.917}, {"smiles": "N#CCc1nc(-c2cc3ccccc3oc2=O)cs1", "hERG current change (%, negative = inhibition) at 10uM": 4.23}, {"smiles": "O=[N+]([O-])c1ccc(O)c(CN2CCCCCC2)c1", "hERG current change (%, negative = inhibition) at 10uM": 18.6}, {"smiles": "NC(=O)Nc1ccc(C(=O)OCC(=O)Nc2cccc(S(=O)(=O)NC3=NCCCCC3)c2)cc1", "hERG current change (%, negative = inhibition) at 10uM": -4.61}, {"smiles": "COc1ccc(C2=NN(c3ccccc3)C(c3ccc(OC)c(OC)c3)C2)cc1", "note": "(stereo not shown)", "hERG current change (%, negative = inhibition) at 10uM": 15.9}, {"smiles": "COc1ccc(Cl)cc1NC(=O)c1cc(-c2cc(C)ccc2O)n[nH]1", "hERG current change (%, negative = inhibition) at 10uM": 15.7}, {"smiles": "Cc1noc(C)c1COc1ccc(CC(=O)NCCc2ccccn2)cc1", "hERG current change (%, negative = inhibition) at 10uM": -9.23}, {"smiles": "Cn1c(=O)c2c(Nc3ccc(F)cc3)cc(=O)n(-c3ccccc3)c2n(C)c1=O", "hERG current change (%, negative = inhibition) at 10uM": 8.29}, {"smiles": "COc1ccc(N2CCN(CCCN)CC2)cc1", "hERG current change (%, negative = inhibition) at 10uM": 8.6}, {"smiles": "COc1ccc(-c2nsc3c(N4CCCC4)ncnc23)cc1", "hERG current change (%, negative = inhibition) at 10uM": -2.81}, {"smiles": "COCCCNC(=O)Cn1nnc(-c2ccc(NC(=O)c3ccc(F)cc3)cc2)n1", "hERG current change (%, negative = inhibition) at 10uM": 11.9}, {"smiles": "O=C(Nc1cccc(O)c1)c1c(O)c2ccccc2[nH]c1=O", "hERG current change (%, negative = inhibition) at 10uM": 11.7}, {"smiles": "O=C(c1cc2c(=O)n3ccccc3nc2s1)N1CCOCC1", "hERG current change (%, negative = inhibition) at 10uM": -10.5}, {"smiles": "O=C(CNC(=O)c1cn2ccccc2n1)Nc1ccc(F)c(F)c1", "hERG current change (%, negative = inhibition) at 10uM": 6.43}, {"smiles": "O=C(c1ccc(N2CCCS2(=O)=O)cc1)N1CCN(c2ccccc2)CC1", "hERG current change (%, negative = inhibition) at 10uM": -8.92}]}]}
